61 compounds from PubChem BioAssay AID485344 (National Center for Advancing Translational Sciences (NCATS), 2010) can be followed below.

Several values for one entry are separate records, joined by “and”; a condition that tells them apart may be missing. Equal entries are not always repeated. Screen size: about 340,000 compounds; about 6,900 (2%) were called active. No stated cut-off is given here; in the data, active means inhibition above about 30%; inactive means below that, where a call was filed. The entries are a selection whose mix differs from that of the whole data set. Where no call is shown, the source filed none.

For this experiment, the target named is D(2) dopamine receptor (Homo sapiens) (UniProt P14416). The experiment in a line: HTS Assay for Allosteric Antagonists of the Human D2 Dopamine Receptor: Primary Screen for Antagonists. Further: 0% is about no effect. Particulars: HEK293 TREx D2 cells, calcium flux, dopamine EC80; at 10 µM; stronger effect = higher value. The method in brief: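 Calcium mobilization kinetics were recorded at 1 s intervals in tetracycline-induced HEK293 T-REx D2 cells, first for 180 s after compound addition and then 180 s after EC80 dopamine.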
Sequence of UniProt P14416 (P14416 whole entry, looked up): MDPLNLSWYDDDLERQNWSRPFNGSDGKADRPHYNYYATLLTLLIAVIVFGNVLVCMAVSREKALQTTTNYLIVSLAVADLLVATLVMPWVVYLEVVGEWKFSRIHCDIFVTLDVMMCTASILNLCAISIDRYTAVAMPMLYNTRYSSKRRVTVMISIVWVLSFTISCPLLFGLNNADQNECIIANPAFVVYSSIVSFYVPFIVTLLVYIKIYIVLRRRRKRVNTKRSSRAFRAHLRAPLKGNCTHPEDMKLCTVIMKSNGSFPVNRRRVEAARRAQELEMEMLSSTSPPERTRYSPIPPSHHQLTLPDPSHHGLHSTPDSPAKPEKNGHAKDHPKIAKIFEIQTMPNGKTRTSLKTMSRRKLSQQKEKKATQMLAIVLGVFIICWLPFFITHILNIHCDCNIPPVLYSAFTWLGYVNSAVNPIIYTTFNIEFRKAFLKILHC
A word on the inhibition: it is the drop in the measured response relative to a control, in per cent. For `CC(C)(C)c1ccccc1NC(=O)c1cnn2c(C(F)F)cc(-c3ccccc3)nc12`, the inhibition was -16.4%.

In the case of `COc1ccccc1NC(=O)CSc1oc(-c2ccc(F)cc2)nc1S(=O)(=O)c1ccc(Br)cc1`, the inhibition was -10.4%.

For `Cn1c(=O)c2c(SCC(=O)Nc3ccc(F)cc3F)nc(C3CCCC3)nc2n(C)c1=O`, the inhibition worked out at 4.93%.

`CCOC(=O)c1cnc(N2CCN(c3ccc(C)cc3C)CC2)c2ccccc12`: the inhibition is -4.34%.

For `Cc1cc(C)c(NC(=O)Cn2c(=O)n(CCC(=O)NCc3ccc4c(c3)OCO4)c(=O)c3ccccc32)c(C)c1`, the inhibition is 10.1%.

On to `CCCCn1c(CCC)nc([N+](=O)[O-])c1Sc1ccc(Cl)cn1`, for which the inhibition is active: 40.2%.

For the compound `CC(=O)Nc1ccc(C(=O)CSc2nnc3cc(C)c4ccccc4n23)cc1`, the inhibition was -22.3%.

On to `CCOC(=O)C1CCN(C(=O)CSc2c3c(nc4ccc(Cl)cc24)CCCC3)CC1`, for which the inhibition was determined as 10.9%.

Regarding `COc1ccc(CCC(=O)NC2CC(=O)N(c3ccc(C)c(C)c3)C2)cc1` (stereo unspecified), the inhibition was -7.61%.

As to `Cc1ccc(CNC(=O)c2ccc(-c3nc(CN4CCc5ccccc54)c(C)o3)cc2)cc1`, the inhibition was -0.681%.

Regarding `Cc1cc(C)c(NC(=O)CSc2nnc3[nH]c(=O)cc(C)n23)c(C)c1`, the inhibition was -15%.

Take `O=c1c2ccccc2n2c(-c3ccc(F)c(F)c3)nnc2n1CCc1ccccc1`: the inhibition is -0.354%.

On to `CCOC(=O)c1ccccc1NC1(c2ccc(OC)cc2)C(=O)c2ccccc2C1=O`, for which the inhibition was -4.51%.

Take `COCCN(C(=O)c1ccccc1)c1nnc(-c2cccnc2)s1`: the inhibition was active: 47.9%.

Consider `CCC(=O)Nc1ccc2nc(SCC(=O)N3CCc4ccccc43)sc2c1`, for which the inhibition came to 15.3%.

For the compound `CCOC(=O)c1c(S(=O)(=O)N2CCCC(C(=O)Nc3ccc(C)cc3C)C2)c(C)n(CC)c1C` (stereo unspecified), the inhibition was determined as 11.3%.

Consider `COC(=O)c1ccc(C2c3c(oc4cc(C)c(C)cc4c3=O)C(=O)N2c2ccccn2)cc1` (stereo unspecified), for which the inhibition amounted to 4.52%.

Turning to `Cc1nc2sc(C(=O)OCC(=O)N3c4ccccc4CC3C)c(C)c2c(=O)[nH]1` (stereo unspecified), the inhibition was active: 52.3%.

As to `COCCc1nn2c(=O)cc(COC(=O)COc3ccccc3C)nc2s1`, the inhibition worked out at 14.2%.

On to `O=C(CCS(=O)(=O)c1cc2c3c(c1)CCN3C(=O)CC2)NCc1ccc(F)cc1`, for which the inhibition is -4.06%.

On to `O=C(Nc1noc2ccccc12)c1cccc(F)c1`, for which the inhibition is -12.8%.

In the case of `CCS(=O)(=O)NC(C)C(c1cccs1)N1CCN(c2ccc(F)cc2)CC1` (stereo unspecified), the inhibition was active: 39.7%.

For the compound `Cc1nc2nc(C)c(CCC(=O)NCCCN3CCN(c4cccc(Cl)c4)CC3)c(C)n2n1`, the inhibition is active: 88.7% and active: 72.6%.

As to `CC(C)c1ccc(NC(=O)C2CCCN(S(=O)(=O)c3cccc4nonc34)C2)cc1` (stereo unspecified), the inhibition was -4.89%.

As to `CCc1ccc(NC(=O)C2CCCN(S(=O)(=O)c3c(C)[nH]c(=O)[nH]c3=O)C2)cc1` (stereo unspecified), the inhibition amounted to 2.72%.

`COC(=O)c1ccc(Cn2nc(-c3ccc(C)c(C)c3)ccc2=O)cc1`: the inhibition was -1.29%.

On to `CC(C)c1ccc(NS(=O)(=O)c2ccc3[nH]c(=O)ccc3c2)cc1`, for which the inhibition was -23.4%.

For the compound `CCOc1ccc(CCNS(=O)(=O)c2c(C)nc3sc(C)cn3c2=O)cc1OCC`, the inhibition was -3.08%.

Regarding `CC(=O)c1ccc(NC(=O)CCc2c(C)nn(-c3ccc4nncn4n3)c2C)cc1`, the inhibition came to 22.1%.

Turning to `CSc1ccc(CCNC(=O)c2cc3n(n2)CCCN(Cc2ccc(C)cc2)C3=O)cc1`, the inhibition is -3.49%.

For `CCC1CN(C(=O)N2CCC(C(=O)NCCOC)CC2)c2ccccc2O1` (stereo unspecified), the inhibition stood at 11.9%.

Take `CCCCN(CC)CCCNC(=O)CC1Oc2ccccc2NC1=O` (stereo unspecified): the inhibition was active: 87%.

Consider `Cc1ccc(NC(=O)CCS(=O)(=O)c2ccc3nc(C)sc3c2)cc1`, for which the inhibition was 1.98%.

Take `CCOc1ccccc1NC(=O)CSc1nnnn1-c1ccccc1`: the inhibition was active: 31.1%.

Turning to `Cc1ccccc1C(=O)Nc1nnc(SCc2cc(=O)c3c(C)ccc(C)c3[nH]2)s1`, the inhibition is -21.4%.

As for `CCc1ccc(NC(=O)Cn2nnc(C(=O)NCc3ccco3)c2N)cc1`, the inhibition was -0.697%.

Turning to `CC1CCN(S(=O)(=O)c2cc(C(=O)NCc3ccc(F)cc3)n(C)c2)CC1`, the inhibition turned out to be 0.024%.

`COc1cccc(COC(=O)c2ccc(-c3nnn(Cc4ccccc4)n3)cc2)c1`: the inhibition was -7.71%.

As for `O=C1C(c2ccc(F)cc2)N(CCc2ccccc2)C(=O)CN1C1CCCCC1` (stereo unspecified), the inhibition was found to be 6.09%.

`COc1ccc(CN(C(=O)Nc2ccc(C)c(F)c2)C2CCN(C(C)=O)CC2)cc1`: the inhibition stood at 16%.

`CC(C)c1ccc(C(=O)Nc2cccc3cccnc23)cc1`: the inhibition is -10.8%.

Turning to `O=C(NCc1ccccc1)C1CCC(CNS(=O)(=O)c2ccc(Br)s2)CC1` (stereo unspecified), the inhibition is -2.47%.

`COc1cc(NC(=O)Cn2c(=O)n(C(C)C)c(=O)c3oc4ccccc4c32)cc(OC)c1`: the inhibition is -9.03%.

For the compound `CC1CCc2nn(CC(=O)Nc3cccc(C(F)(F)F)c3)c(=O)cc2C1` (stereo unspecified), the inhibition was 8.38%.

Consider `COc1ccc(Cl)c(N2CCN(CCCNC(=O)Nc3ccc(C)cc3)CC2)c1`, for which the inhibition was active: 35.6%.

On to `O=C(Nc1cccnc1Cl)c1cc(-c2ccc(Cl)cc2)on1`, for which the inhibition was 9.6%.

`Cc1ccc2c(Cl)c(C(=O)Nc3ccc4c(c3)OCO4)sc2c1`: the inhibition was active: 33.6%.

As for `O=C(Nc1sc2c(c1C(=O)NCc1ccccc1)CCCC2)c1cc(=O)c2cc(Cl)ccc2o1`, the inhibition is -2.17%.

As for `CCc1ccccc1N1CC(c2nc3ccccc3n2Cc2cccc(C)c2)CC1=O` (stereo unspecified), the inhibition stood at 7.62%.

As to `O=C(Nc1nc2nc(-c3ccccc3)cc(=O)n2[nH]1)c1ccc(F)cc1`, the inhibition stood at 22.9%.

As for `CCOc1ccc(S(=O)(=O)NCCc2sc(-c3ccc(C)cc3)nc2C)cc1`, the inhibition worked out at 12.1%.

Regarding `COc1cccc(CNC(=O)Cn2ccc3cc(S(=O)(=O)N4CCCC4)ccc32)c1`, the inhibition is -7.21%.

Take `CCOc1ccccc1N1CC(c2nc3ccccc3n2CCCOc2ccccc2OC)CC1=O` (stereo unspecified): the inhibition is -0.582%.

For `COc1ccc(Cl)cc1NC(=S)NCCc1ccc(F)cc1`, the inhibition is active: 39.6%.

Take `COc1cc(-c2noc(-c3ccc(NCCc4ccccc4)c([N+](=O)[O-])c3)n2)cc(OC)c1OC`: the inhibition turned out to be 21.9%.

For the compound `COCC(=O)N1CCc2cc(OC)c(OC)cc2C1COc1ccc2c(C)cc(=O)oc2c1` (stereo unspecified), the inhibition turned out to be 10.6%.

For `COc1cc(NC(=O)CCNS(=O)(=O)c2ccc3c(c2)CCN3C(=O)C2CC2)cc(OC)c1`, the inhibition is 7.21%.

Consider `Cc1ccc(C)c(N2CCN(C(=O)c3ccc4c(Cl)c5c(nc4c3)CCCC5)CC2)c1`, for which the inhibition was -0.11%.

With `COc1cccc(CNC(=O)c2c(O)nc3ccccn3c2=O)c1`, the inhibition worked out at 5.32%.

On to `CCOc1ccc(N2CC(c3nc4ccccc4n3CC(C)C)CC2=O)cc1` (stereo unspecified), for which the inhibition stood at 1.16%.

As for `COc1ccc(N2CCN(C(c3ccccc3)c3nnc(-c4ccccc4Cl)o3)CC2)cc1` (stereo unspecified), the inhibition amounted to 12.7%.
